Assay results published in publication PMC6151265.
These are yes or no findings as the source states them, for the method shown. In cells and extracts the contact can be indirect. Some entries that bind do so weakly or less than the wild type.

Protein sequences, listed by entry. Tags and fused reporters are not part of them.
UniProt Q9Y496: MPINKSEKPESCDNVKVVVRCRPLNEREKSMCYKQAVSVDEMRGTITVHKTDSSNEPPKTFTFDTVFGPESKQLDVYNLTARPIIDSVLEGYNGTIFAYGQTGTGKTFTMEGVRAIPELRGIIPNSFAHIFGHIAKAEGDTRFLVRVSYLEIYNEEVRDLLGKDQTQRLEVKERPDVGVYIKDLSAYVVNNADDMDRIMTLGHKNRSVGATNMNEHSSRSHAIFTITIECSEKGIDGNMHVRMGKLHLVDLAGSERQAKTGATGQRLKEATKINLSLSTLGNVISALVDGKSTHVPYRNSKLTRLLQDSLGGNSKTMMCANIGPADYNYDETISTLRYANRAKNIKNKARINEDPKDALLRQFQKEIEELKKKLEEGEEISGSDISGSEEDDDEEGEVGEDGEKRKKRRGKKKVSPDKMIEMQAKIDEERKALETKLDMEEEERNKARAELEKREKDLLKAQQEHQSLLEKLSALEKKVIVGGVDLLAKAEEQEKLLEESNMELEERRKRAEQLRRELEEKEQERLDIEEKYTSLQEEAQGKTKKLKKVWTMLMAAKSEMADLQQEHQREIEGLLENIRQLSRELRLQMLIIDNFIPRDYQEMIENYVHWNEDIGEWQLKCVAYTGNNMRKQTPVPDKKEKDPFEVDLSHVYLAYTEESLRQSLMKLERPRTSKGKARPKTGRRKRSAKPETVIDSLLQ
UniProt Q96T51: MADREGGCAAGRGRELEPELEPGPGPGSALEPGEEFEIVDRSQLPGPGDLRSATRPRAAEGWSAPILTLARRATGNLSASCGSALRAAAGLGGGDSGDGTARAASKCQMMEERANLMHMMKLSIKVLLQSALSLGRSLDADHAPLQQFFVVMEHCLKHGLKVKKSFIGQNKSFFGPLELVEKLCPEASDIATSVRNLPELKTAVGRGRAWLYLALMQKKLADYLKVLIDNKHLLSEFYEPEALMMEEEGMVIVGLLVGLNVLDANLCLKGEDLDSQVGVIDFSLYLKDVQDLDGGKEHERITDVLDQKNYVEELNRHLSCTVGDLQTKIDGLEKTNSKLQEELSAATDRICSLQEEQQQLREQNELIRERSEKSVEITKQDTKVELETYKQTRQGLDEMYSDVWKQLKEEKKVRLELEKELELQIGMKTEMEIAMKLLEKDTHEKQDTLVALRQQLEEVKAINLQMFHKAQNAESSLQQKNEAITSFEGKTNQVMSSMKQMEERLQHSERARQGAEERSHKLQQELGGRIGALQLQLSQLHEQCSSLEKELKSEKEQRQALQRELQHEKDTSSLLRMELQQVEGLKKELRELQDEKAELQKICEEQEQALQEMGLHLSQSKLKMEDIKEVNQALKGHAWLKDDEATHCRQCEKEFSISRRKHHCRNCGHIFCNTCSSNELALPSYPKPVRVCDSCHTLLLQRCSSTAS

Assays:
[1] = molecular target: Myc–KIF3A (UniProt Q9Y496); experiment: co-IP; Myc-tagged bait expressed in HeLa cells, anti-Myc antibody and Protein G–Sepharose 4B beads overnight at 4°C; immunoblotting of endogenous partners
[2] = molecular target: GFP–Rabip4′ (UniProt Q96T51); experiment: co-IP; GFP-tagged bait expressed in HeLa cells, lysate (20 mM HEPES pH7.4, 100 mM KCl, 10 mM MgCl2, 5 mM EDTA, 1% Triton X-100, 100 µM GTPγS) on GFP-Trap_A beads 4–5 h at 4°C; immunoblotting of endogenous partners

B1: rabenosyn-5 (endogenous, HeLa) (protein, UniProt Q9H1K0 1-784)
chain: MASLDDPGEVREGFLCPLCLKDLQSFYQLHSHYEEEHSGEDRDVKGQIKSLVQKAKKAKDRLLKREGDDRAESGTQGYESFSYGGVDPYMWEPQELGAVRSHLSDFKKHRAARIDHYVVEVNKLIIRLEKLTAFDRTNTESAKIRAIEKSVVPWVNDQDVPFCPDCGNKFSIRNRRHHCRLCGSIMCKKCMELISLPLANKLTSASKESLSTHTSPSQSPNSVHGSRRGSISSMSSVSSVLDEKDDDRIRCCTHCKDTLLKREQQIDEKEHTPDIVKLYEKLRLCMEKVDQKAPEYIRMAASLNAGETTYSLEHASDLRVEVQKVYELIDALSKKILTLGLNQDPPPHPSNLRLQRMIRYSATLFVQEKLLGLMSLPTKEQFEELKKKRKEEMERKRAVERQAALESQRRLEERQSGLASRAANGEVASLRRGPAPLRKAEGWLPLSGGQGQSEDSDPLLQQIHNITSFIRQAKAAGRMDEVRTLQENLRQLQDEYDQQQTEKAIELSRRQAEEEDLQREQLQMLRERELEREREQFRVASLHTRTRSLDFREIGPFQLEPSREPRTHLAYALDLGSSPVPSSTAPKTPSLSSTQPTRVWSGPPAVGQERLPQSSMPQQHEGPSLNPFDEEDLSSPMEEATTGPPAAGVSLDPSARILKEYNPFEEEDEEEEAVAGNPFIQPDSPAPNPFSEEDEHPQQRLSSPLVPGNPFEEPTCINPFEMDSDSGPEAEEPIEEELLLQQIDNIKAYIFDAKQCGRLDEVEVLTENLRELKHTLAKQKGGTD
[1]
  binding: binds
[2]
  binding: binds
